Test results published in patent publication US20250064836A1 (priority 2023, published 2025).
Read-outs that look alike come from different tables or passages of the source.

Test system: C. difficile R20291

Molecule | histopathological scores in colonic tissues (CDI with R20291, mice) | colonization of R20291 (CFUs) (CDI with R20291, mice, cecal content) | colonization of R20291 (CFUs) (in vivo) | histopathological scores in colonic tissues (in vivo)
fremanezumab | reduced histopathological scores | reduced colonization | – | –
C[C@@H](O[C@H]1OCCN(Cc2n[nH]c(=O)[nH]2)[C@H]1c1ccc(F)cc1)c1cc(C(F)(F)F)cc(C(F)(F)F)c1 [aprepitant] | – | – | reduced colonization | reduced histopathological scores
NCCCC[C@H](NC(=O)[C@@H](Cc1cc(Br)c(O)c(Br)c1)NC(=O)N1CCC(N2Cc3ccccc3NC2=O)CC1)C(=O)N1CCN(c2ccncc2)CC1 [olcegepant] | – | – | reduced colonization | reduced histopathological scores
